Results published in the antibiotic and cytotoxicity screens of Wong et al. (2023).
The list shows a part of the results.

How the values were obtained:
HSkMC = human skeletal muscle cells; assay: cytotoxicity call (relative viability < 0.9); settings: 10 µM
HepG2 = assay: cytotoxicity call (relative viability < 0.9); settings: 10 µM
S. aureus RN4220 = assay: growth inhibition call (relative growth <= 0.2); settings: 50 µM

| Compound | cytotoxicity call (HSkMC) | cytotoxicity call (HepG2) | growth inhibition call (S. aureus RN4220) |
| --- | --- | --- | --- |
| COc1ccc([Si](C)(C)[C@@H]2[C@@H](CCn3cc(CCO)nn3)O[C@]3(C(=O)N(Cc4ccc(N5C(=O)c6cccc7cccc5c67)cc4)c4ccccc43)[C@H]2C)cc1 | active | active | inactive |
| CCCCc1ccc(S(=O)(=O)Nc2nccnc2-c2ccc(COc3cc(CC)nc4ccccc34)cc2)cc1 | inactive | inactive | inactive |
| O=C(C[C@H]1C[C@@H]2c3cc(NC(=O)C4CCOCC4)ccc3O[C@@H]2[C@@H](CO)O1)NCc1ccc2c(c1)OCO2 | inactive | inactive | inactive |
| C[C@@H]1CCCCO[C@@H](CN(C)C(=O)Cc2ccccc2)[C@H](C)CN([C@H](C)CO)C(=O)c2cc(NC(=O)NC3CCCCC3)ccc2O1 | inactive | active | inactive |
| Cc1ccc(S(=O)(=O)N(C)C[C@H]2Oc3ccc(NC(=O)Cn4cnnn4)cc3CC(=O)N([C@@H](C)CO)C[C@H]2C)cc1 | inactive | inactive | inactive |
| CCCCCCO[C@@H](C)c1cccc(-c2csc(NC(=O)c3cc(Cl)c(/C=C(\C)C(=O)O)c(Cl)c3)n2)c1OC | active | inactive | inactive |
| COCC(=O)N1CC[C@]2(CC1)CN([C@@H](CO)c1[nH]c3cc(ccc3c12)OC)C(=O)Nc1ccccc1F | inactive | inactive | inactive |
| C[C@@H]1CN([C@H](C)CO)C(=O)c2cc(NC(=O)Nc3ccc4c(c3)OCO4)ccc2O[C@@H](C)CCCCO[C@H]1CN(C)Cc1ccc(C(F)(F)F)cc1 | inactive | active | inactive |
